# Laboratory results taken from publication PMC12820563, “FoxP3 forms a head-to-head dimer in vivo and stabilizes its multimerization on adjacent microsatellites”.
# This is one part of the list.
# Target: T1, MBP-FoxP1dN (Mus musculus, UniProt P58462 326-579)
# T1 sequence: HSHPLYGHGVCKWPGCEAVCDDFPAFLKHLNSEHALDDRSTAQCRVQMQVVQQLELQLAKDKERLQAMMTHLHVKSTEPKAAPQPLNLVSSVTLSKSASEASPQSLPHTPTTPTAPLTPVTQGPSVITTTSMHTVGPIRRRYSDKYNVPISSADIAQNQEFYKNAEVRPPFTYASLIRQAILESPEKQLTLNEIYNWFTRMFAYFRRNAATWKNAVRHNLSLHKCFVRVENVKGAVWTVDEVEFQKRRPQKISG
# Test: PD-seq (MBP pull-down with sequencing); 20 mM Tris-HCl pH 7.5, 100 mM NaCl, 1.5 mM MgCl2, 0.4 uM protein, 0.1 uM dsDNA library, 30 min, room temperature, amylose pull-down; high values mean tight binding
# Details: protein: recombinant; tags: His6-MBP; chain copies: 2; dsDNA, one strand shown
# Summary of the method: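 Binding is the reads-per-million enrichment of pull-down relative to input, pooled across replicates. For this, 0.4 µM His6-MBP-tagged mouse FoxP3 or FoxP1 fragment lacking the N-terminus, made in E. coli, was incubated with 0.1 µM Klenow-filled double-stranded degenerate DNA library for 30 min at room temperature in Tris pH 7.5 buffer with NaCl and MgCl2. Complexes bound to amylose resin were washed three times before proteinase K released the DNA for PCR barcoding and Illumina sequencing.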
row,Sequence,binding signal
1,GATGATTGTTCTCCCAGCTGATGAATTGATTCTCTCGAGTAAACAAATTTTCCTAATCTTTCTGTTCAAGCGCCATCTAC,1.03 RPM ratio (pull-down/input)
2,GATGATTGTTCTCCCAGCTGATGAATTTGCAGGTTCGAGTAAACAAATTTTCCTAATCTTTCTGTTCAAGCGCCATCTAC,0.786 RPM ratio (pull-down/input)
3,GATGATTGTTCTCCCAGCTGATGAATTCGTTGCCTCGAGTAAACAAATTTTCCTAATCTTTCTGTTCAAGCGCCATCTAC,0.953 RPM ratio (pull-down/input)
4,GATGATTGTTCTCCCAGCTGATGAATTATACACATCGAGTAAACAAATTTTCCTAATCTTTCTGTTCAAGCGCCATCTAC,1.62 RPM ratio (pull-down/input)
5,GATGATTGTTCTCCCAGCTGATGAATTACCATTGTCGAGTAAACAAATTTTCCTAATCTTTCTGTTCAAGCGCCATCTAC,1.04 RPM ratio (pull-down/input)
6,GATGATTGTTCTCCCAGCTGATGAATTTCTTGGCTCGAGTAAACAAATTTTCCTAATCTTTCTGTTCAAGCGCCATCTAC,0.811 RPM ratio (pull-down/input)
7,GATGATTGTTCTCCCAGCTGATGAATTTCCTCCGTCGAGTAAACAAATTTTCCTAATCTTTCTGTTCAAGCGCCATCTAC,0.887 RPM ratio (pull-down/input)
8,GATGATTGTTCTCCCAGCTGATGAATTGAATGTCTCGAGTAAACAAATTTTCCTAATCTTTCTGTTCAAGCGCCATCTAC,0.84 RPM ratio (pull-down/input)
9,GATGATTGTTCTCCCAGCTGATGAATTCTCTATATCGAGTAAACAAATTTTCCTAATCTTTCTGTTCAAGCGCCATCTAC,0.94 RPM ratio (pull-down/input)
10,GATGATTGTTCTCCCAGCTGATGAATTAAGCGGTTCGAGTAAACAAATTTTCCTAATCTTTCTGTTCAAGCGCCATCTAC,0.979 RPM ratio (pull-down/input)
11,GATGATTGTTCTCCCAGCTGATGAATTGGCATCGTCGAGTAAACAAATTTTCCTAATCTTTCTGTTCAAGCGCCATCTAC,0.938 RPM ratio (pull-down/input)
12,GATGATTGTTCTCCCAGCTGATGAATTACTTTGCTCGAGTAAACAAATTTTCCTAATCTTTCTGTTCAAGCGCCATCTAC,1.02 RPM ratio (pull-down/input)
13,GATGATTGTTCTCCCAGCTGATGAATTCGCACCTTCGAGTAAACAAATTTTCCTAATCTTTCTGTTCAAGCGCCATCTAC,0.893 RPM ratio (pull-down/input)
14,GATGATTGTTCTCCCAGCTGATGAATTTTAGCTATCGAGTAAACAAATTTTCCTAATCTTTCTGTTCAAGCGCCATCTAC,0.97 RPM ratio (pull-down/input)
15,GATGATTGTTCTCCCAGCTGATGAATTTGCTCGATCGAGTAAACAAATTTTCCTAATCTTTCTGTTCAAGCGCCATCTAC,0.994 RPM ratio (pull-down/input)
16,GATGATTGTTCTCCCAGCTGATGAATTTATCATGTCGAGTAAACAAATTTTCCTAATCTTTCTGTTCAAGCGCCATCTAC,1.15 RPM ratio (pull-down/input)
17,GATGATTGTTCTCCCAGCTGATGAATTCTTAGGATCGAGTAAACAAATTTTCCTAATCTTTCTGTTCAAGCGCCATCTAC,0.802 RPM ratio (pull-down/input)
18,GATGATTGTTCTCCCAGCTGATGAATTCGGATTTTCGAGTAAACAAATTTTCCTAATCTTTCTGTTCAAGCGCCATCTAC,0.958 RPM ratio (pull-down/input)
19,GATGATTGTTCTCCCAGCTGATGAATTTCCAGTTTCGAGTAAACAAATTTTCCTAATCTTTCTGTTCAAGCGCCATCTAC,0.804 RPM ratio (pull-down/input)
20,GATGATTGTTCTCCCAGCTGATGAATTGTTCGTTTCGAGTAAACAAATTTTCCTAATCTTTCTGTTCAAGCGCCATCTAC,1.15 RPM ratio (pull-down/input)
21,GATGATTGTTCTCCCAGCTGATGAATTTCGAAGCTCGAGTAAACAAATTTTCCTAATCTTTCTGTTCAAGCGCCATCTAC,0.756 RPM ratio (pull-down/input)

row,Sequence,binding signal
1,GATGATTGTTCTCCCAGCTGATGAATTAAGACTCTCGAGTAAACAAATTTTCCTAATCTTTCTGTTCAAGCGCCATCTAC,0.773 RPM ratio (pull-down/input)
2,GATGATTGTTCTCCCAGCTGATGAATTCGGACATTCGAGTAAACAAATTTTCCTAATCTTTCTGTTCAAGCGCCATCTAC,0.883 RPM ratio (pull-down/input)
3,GATGATTGTTCTCCCAGCTGATGAATTTGAGTTGTCGAGTAAACAAATTTTCCTAATCTTTCTGTTCAAGCGCCATCTAC,1.19 RPM ratio (pull-down/input)
4,GATGATTGTTCTCCCAGCTGATGAATTCAGATAGTCGAGTAAACAAATTTTCCTAATCTTTCTGTTCAAGCGCCATCTAC,0.848 RPM ratio (pull-down/input)
5,GATGATTGTTCTCCCAGCTGATGAATTGTTACCGTCGAGTAAACAAATTTTCCTAATCTTTCTGTTCAAGCGCCATCTAC,1.21 RPM ratio (pull-down/input)
6,GATGATTGTTCTCCCAGCTGATGAATTGCCTGCATCGAGTAAACAAATTTTCCTAATCTTTCTGTTCAAGCGCCATCTAC,1.21 RPM ratio (pull-down/input)
7,GATGATTGTTCTCCCAGCTGATGAATTGTTCACTTCGAGTAAACAAATTTTCCTAATCTTTCTGTTCAAGCGCCATCTAC,1.1 RPM ratio (pull-down/input)
8,GATGATTGTTCTCCCAGCTGATGAATTGTGACCATCGAGTAAACAAATTTTCCTAATCTTTCTGTTCAAGCGCCATCTAC,1.16 RPM ratio (pull-down/input)
9,GATGATTGTTCTCCCAGCTGATGAATTAGACCAATCGAGTAAACAAATTTTCCTAATCTTTCTGTTCAAGCGCCATCTAC,0.965 RPM ratio (pull-down/input)
10,GATGATTGTTCTCCCAGCTGATGAATTAGTACTCTCGAGTAAACAAATTTTCCTAATCTTTCTGTTCAAGCGCCATCTAC,0.952 RPM ratio (pull-down/input)
11,GATGATTGTTCTCCCAGCTGATGAATTTAGCCAGTCGAGTAAACAAATTTTCCTAATCTTTCTGTTCAAGCGCCATCTAC,0.865 RPM ratio (pull-down/input)
12,GATGATTGTTCTCCCAGCTGATGAATTAAATAGATCGAGTAAACAAATTTTCCTAATCTTTCTGTTCAAGCGCCATCTAC,1.09 RPM ratio (pull-down/input)
13,GATGATTGTTCTCCCAGCTGATGAATTGACAAGTTCGAGTAAACAAATTTTCCTAATCTTTCTGTTCAAGCGCCATCTAC,1.29 RPM ratio (pull-down/input)
14,GATGATTGTTCTCCCAGCTGATGAATTGAATTCGTCGAGTAAACAAATTTTCCTAATCTTTCTGTTCAAGCGCCATCTAC,0.818 RPM ratio (pull-down/input)
15,GATGATTGTTCTCCCAGCTGATGAATTATTTGGTTCGAGTAAACAAATTTTCCTAATCTTTCTGTTCAAGCGCCATCTAC,1.19 RPM ratio (pull-down/input)
16,GATGATTGTTCTCCCAGCTGATGAATTGGGTCCTTCGAGTAAACAAATTTTCCTAATCTTTCTGTTCAAGCGCCATCTAC,0.85 RPM ratio (pull-down/input)
17,GATGATTGTTCTCCCAGCTGATGAATTCAGTGGATCGAGTAAACAAATTTTCCTAATCTTTCTGTTCAAGCGCCATCTAC,0.832 RPM ratio (pull-down/input)
18,GATGATTGTTCTCCCAGCTGATGAATTATCGCCATCGAGTAAACAAATTTTCCTAATCTTTCTGTTCAAGCGCCATCTAC,0.996 RPM ratio (pull-down/input)
19,GATGATTGTTCTCCCAGCTGATGAATTTCAAGATTCGAGTAAACAAATTTTCCTAATCTTTCTGTTCAAGCGCCATCTAC,0.833 RPM ratio (pull-down/input)
20,GATGATTGTTCTCCCAGCTGATGAATTAGAGCCCTCGAGTAAACAAATTTTCCTAATCTTTCTGTTCAAGCGCCATCTAC,0.741 RPM ratio (pull-down/input)
21,GATGATTGTTCTCCCAGCTGATGAATTCTTCCCTTCGAGTAAACAAATTTTCCTAATCTTTCTGTTCAAGCGCCATCTAC,0.873 RPM ratio (pull-down/input)

row,Sequence,binding signal
1,GATGATTGTTCTCCCAGCTGATGAATTTCCAAGTTCGAGTAAACAAATTTTCCTAATCTTTCTGTTCAAGCGCCATCTAC,0.843 RPM ratio (pull-down/input)
2,GATGATTGTTCTCCCAGCTGATGAATTTTATTCATCGAGTAAACAAATTTTCCTAATCTTTCTGTTCAAGCGCCATCTAC,0.976 RPM ratio (pull-down/input)
3,GATGATTGTTCTCCCAGCTGATGAATTGGTAGTCTCGAGTAAACAAATTTTCCTAATCTTTCTGTTCAAGCGCCATCTAC,0.948 RPM ratio (pull-down/input)
4,GATGATTGTTCTCCCAGCTGATGAATTATTCCGCTCGAGTAAACAAATTTTCCTAATCTTTCTGTTCAAGCGCCATCTAC,0.9 RPM ratio (pull-down/input)
5,GATGATTGTTCTCCCAGCTGATGAATTAAGCATATCGAGTAAACAAATTTTCCTAATCTTTCTGTTCAAGCGCCATCTAC,0.99 RPM ratio (pull-down/input)
6,GATGATTGTTCTCCCAGCTGATGAATTACACTCGTCGAGTAAACAAATTTTCCTAATCTTTCTGTTCAAGCGCCATCTAC,1.15 RPM ratio (pull-down/input)
7,GATGATTGTTCTCCCAGCTGATGAATTTACGACGTCGAGTAAACAAATTTTCCTAATCTTTCTGTTCAAGCGCCATCTAC,1.19 RPM ratio (pull-down/input)
8,GATGATTGTTCTCCCAGCTGATGAATTGCTGGCATCGAGTAAACAAATTTTCCTAATCTTTCTGTTCAAGCGCCATCTAC,1.06 RPM ratio (pull-down/input)
9,GATGATTGTTCTCCCAGCTGATGAATTCTCATCTTCGAGTAAACAAATTTTCCTAATCTTTCTGTTCAAGCGCCATCTAC,0.835 RPM ratio (pull-down/input)
10,GATGATTGTTCTCCCAGCTGATGAATTCGGGTCATCGAGTAAACAAATTTTCCTAATCTTTCTGTTCAAGCGCCATCTAC,0.906 RPM ratio (pull-down/input)
11,GATGATTGTTCTCCCAGCTGATGAATTAGTTGATTCGAGTAAACAAATTTTCCTAATCTTTCTGTTCAAGCGCCATCTAC,1.1 RPM ratio (pull-down/input)
12,GATGATTGTTCTCCCAGCTGATGAATTATTACAGTCGAGTAAACAAATTTTCCTAATCTTTCTGTTCAAGCGCCATCTAC,1.07 RPM ratio (pull-down/input)
13,GATGATTGTTCTCCCAGCTGATGAATTGAGGGGATCGAGTAAACAAATTTTCCTAATCTTTCTGTTCAAGCGCCATCTAC,0.839 RPM ratio (pull-down/input)
14,GATGATTGTTCTCCCAGCTGATGAATTAGGTGTATCGAGTAAACAAATTTTCCTAATCTTTCTGTTCAAGCGCCATCTAC,1.2 RPM ratio (pull-down/input)
15,GATGATTGTTCTCCCAGCTGATGAATTACGCGGATCGAGTAAACAAATTTTCCTAATCTTTCTGTTCAAGCGCCATCTAC,0.908 RPM ratio (pull-down/input)
16,GATGATTGTTCTCCCAGCTGATGAATTATTACCCTCGAGTAAACAAATTTTCCTAATCTTTCTGTTCAAGCGCCATCTAC,0.999 RPM ratio (pull-down/input)
17,GATGATTGTTCTCCCAGCTGATGAATTCTAGCCGTCGAGTAAACAAATTTTCCTAATCTTTCTGTTCAAGCGCCATCTAC,0.848 RPM ratio (pull-down/input)
18,GATGATTGTTCTCCCAGCTGATGAATTAAACATATCGAGTAAACAAATTTTCCTAATCTTTCTGTTCAAGCGCCATCTAC,1.4 RPM ratio (pull-down/input)
19,GATGATTGTTCTCCCAGCTGATGAATTAGCCTATTCGAGTAAACAAATTTTCCTAATCTTTCTGTTCAAGCGCCATCTAC,0.875 RPM ratio (pull-down/input)
20,GATGATTGTTCTCCCAGCTGATGAATTTGACGAATCGAGTAAACAAATTTTCCTAATCTTTCTGTTCAAGCGCCATCTAC,0.846 RPM ratio (pull-down/input)
21,GATGATTGTTCTCCCAGCTGATGAATTATTCCTGTCGAGTAAACAAATTTTCCTAATCTTTCTGTTCAAGCGCCATCTAC,0.964 RPM ratio (pull-down/input)
